How the values were obtained:
[1] = molecular target: D-apiose isomerase (Q6D5T7) (Pectobacterium atrosepticum, UniProt Q6D5T7); test: 1H NMR, coupled with D-apulose kinase; assay type: biochemical; conditions: 20 mM D-apiose; 2 mM MgCl2; 50 mM sodium phosphate pH 8.0; 25 °C
[2] = molecular target: 3-oxo-isoapionate 4-phosphate transcarboxylase/hydrolase (RLP, A7IJG7) (Xanthobacter versatilis, UniProt A7IJG7); test: 1H NMR, coupled; conditions: 50 mM Tris pD 8.5; 2 mM MgCl2; 25 °C
UniProt A7IJG7, sequence (A7IJG7 whole entry): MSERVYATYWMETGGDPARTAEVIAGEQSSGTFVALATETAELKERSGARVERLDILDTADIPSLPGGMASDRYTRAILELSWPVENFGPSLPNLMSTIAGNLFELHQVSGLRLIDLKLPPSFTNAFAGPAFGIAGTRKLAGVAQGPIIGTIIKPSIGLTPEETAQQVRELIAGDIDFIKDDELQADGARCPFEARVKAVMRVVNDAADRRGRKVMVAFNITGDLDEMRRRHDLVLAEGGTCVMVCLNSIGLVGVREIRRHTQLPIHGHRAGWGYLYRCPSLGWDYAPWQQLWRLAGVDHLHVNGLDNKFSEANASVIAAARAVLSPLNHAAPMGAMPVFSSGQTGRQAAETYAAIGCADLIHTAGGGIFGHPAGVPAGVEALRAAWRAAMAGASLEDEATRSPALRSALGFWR

UniProt Q6D5T7, sequence (Q6D5T7 whole entry): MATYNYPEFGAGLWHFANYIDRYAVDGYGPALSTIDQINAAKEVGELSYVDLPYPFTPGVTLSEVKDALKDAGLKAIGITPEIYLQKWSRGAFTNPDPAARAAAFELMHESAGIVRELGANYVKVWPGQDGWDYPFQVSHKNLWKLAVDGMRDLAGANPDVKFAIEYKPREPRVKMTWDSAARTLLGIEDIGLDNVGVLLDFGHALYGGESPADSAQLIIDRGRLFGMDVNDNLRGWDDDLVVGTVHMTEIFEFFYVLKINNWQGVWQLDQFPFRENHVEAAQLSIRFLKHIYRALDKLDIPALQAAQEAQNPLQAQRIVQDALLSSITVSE

SMILES: O=C[C@H](O)C(O)(CO)CO [D-apiose]
- 1H NMR, coupled with D-apulose kinase [1]: catalyzes isomerization of D-apiose to D-apulose

SMILES: O=C(O)C(O)(CO)C(=O)COP(=O)(O)O (centres unmarked) [3-oxo-isoapionate 4-phosphate]
- 1H NMR, coupled; substrate made in situ with B9JK75 and B1G889 [2]: The RLP converted 3-oxo-isoapionate 4-phosphate to 3-phosphoglycerate (3-PGA) and glycolate

— PMC6435334 (Nature chemical biology, 2018)
